Data taken from the supplement of paper PMC4166925.
± gives the standard deviation of the averaged measurements. Over roughly 33,000 sequences, “E-score (dimensionless, -0.5 to 0.5)” has its median near -0.046; the highest 2% begin near 0.36. The list shows a part of the results.

Test system: T1, SpTbr T-box DNA-binding domain (GST fusion)
T1 sequence: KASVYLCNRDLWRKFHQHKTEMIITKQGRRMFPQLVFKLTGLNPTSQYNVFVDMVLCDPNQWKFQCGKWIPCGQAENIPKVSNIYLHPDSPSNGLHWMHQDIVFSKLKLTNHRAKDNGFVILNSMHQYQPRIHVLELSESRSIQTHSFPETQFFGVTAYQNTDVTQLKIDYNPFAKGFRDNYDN
Experiment: PBM E-score of 8-mer (E-score (dimensionless, -0.5 to 0.5)); Tbr is Tbrain of the sea star Patiria miniata (Pm) or the sea urchin Strongylocentrotus purpuratus (Sp); higher = stronger binding preference; most listed sequences are background and not binding sites
Details: the construct has about 5 more residues each side
Summary of the method: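 GST-fused Tbr T-box DNA-binding domains (the whole T-box plus about five flanking residues) were expressed in BL21 E. coli at 20 °C and purified by glutathione affinity chromatography. Universal Agilent oligonucleotide arrays were made double-stranded by primer extension, incubated with 200 nM protein in PBS (pH 7.5), then scanned and quantified. Every ungapped 8-mer was scored from probe intensities. The Universal PBM Analysis Suite gave each word an enrichment E-score, averaged over duplicate arrays.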

Sequence	PBM E-score of 8-mer
CGTACATA	-0.0111 ± 0.06
ACCCGACT	0.0923 ± 0.057
GCGAATCC	0.196 ± 0.021
AAGCCGAG	-0.00787 ± 0.085
GTTTTGTA	-0.236 ± 0.0086
GACGCGAC	0.195 ± 0.045
CTCCCTTC	-0.214 ± 0.037
CTCTTGAC	0.231 ± 0.013
AACGGGTC	0.0199 ± 0.014
AGCAAGAT	-0.0318 ± 0.027
AAGAGGCC	-0.262 ± 0.044
AGCGCCCT	0.0617 ± 0.059
GTTCGTGA	0.145 ± 0.024
CAAAGTGG	0.0165 ± 0.058
AGTACGTA	-0.0947 ± 0.098
GGTAGACC	-0.219 ± 0.0032
GTGACCGA	0.26 ± 0.033
GACCGACC	-0.088 ± 0.079
ACGAAGCG	0.0517 ± 0.0086
CAGGTCCA	-0.16 ± 0.04
CTTGCGCC	0.0724 ± 0.083
CACCACTG	0.209 ± 0.0027

Sequence	PBM E-score of 8-mer
ATCGACGA	0.0639 ± 0.044
CCGACTAC	-0.168 ± 0.023
CTAGTGAA	0.0786 ± 0.021
CCAGGGAC	-0.058 ± 0.12
ATGTCTTC	0.0345 ± 0.019
ACCCAAAC	-0.0851 ± 0.12
ATCCCCAC	0.242 ± 0.0036
ATTCTTTG	-0.143 ± 0.047
ATTAAGGA	-0.171 ± 0.037
AGCTGCGA	0.307 ± 0.025
GCCATTCA	0.125 ± 0.0034
GCTGATGA	0.0865 ± 0.027
GACCGGAC	0.0405 ± 0.05
CTCTAATC	-0.274 ± 0.018
CACGAGTC	0.0832 ± 0.035
ACCTTCGC	0.234 ± 0.025
CAGCGGAG	-0.0528 ± 0.0068
CAACAGCA	0.168 ± 0.074
CAAACGAG	-0.0117 ± 0.021
ATATTGAA	-0.226 ± 0.0043
AATCATAG	-0.191 ± 0.1
TAACTCTA	-0.134 ± 0.071

Sequence	PBM E-score of 8-mer
GCGCTAGA	0.132 ± 0.077
CAGAACAC	-0.0045 ± 0.11
TGGCTTAA	-0.345 ± 0.0089
AAGGTTCA	0.127 ± 0.071
TCGCTAGA	0.126 ± 0.0074
AAGAGTAT	-0.163 ± 0.024
AGCACAGC	-0.145 ± 0.0064
AGGCCGAC	-0.147 ± 0.035
TTGGCCAA	-0.138 ± 0.061
CAAATCCC	-0.0307 ± 0.076
CTGTCCGA	-0.268 ± 0.036
CACAAGAC	0.0103 ± 0.0076
AACAGGCT	-0.182 ± 0.046
CATATCCA	-0.0171 ± 0.0059
ATGGATCA	-0.196 ± 0.019
AAGCCTGG	-0.118 ± 0.066
CCTGTGGC	-0.0683 ± 0.12
AGTTTTAA	-0.0527 ± 0.037
AGGCTACG	-0.2015 ± 0.00054
ACCGAACG	0.0604 ± 0.033
GCGCGAAA	0.4374 ± 0.0039
GTAAAAAC	-0.0472 ± 0.11

Sequence	PBM E-score of 8-mer
GCTCCCTA	-0.25 ± 0.014
CCTAAACG	-0.00814 ± 0.011
GCTCGGAA	-0.2 ± 0.067
AGCTGTGG	0.129 ± 0.058
GACTTCGC	0.079 ± 0.035
CTGTTTGA	-0.0938 ± 0.067
CGCTGTTC	-0.0423 ± 0.042
AATGTAGG	-0.25 ± 0.0091
CCCTAGAC	-0.248 ± 0.023
AGTCCCTG	-0.146 ± 0.046
CTAATCCA	-0.0207 ± 0.017
GAACTATC	-0.0302 ± 0.011
CAGAACCG	-0.0963 ± 0.026
TAGCCCAA	-0.193 ± 0.06
CAACAAAC	0.041 ± 0.046
GTGCACAC	0.276 ± 0.044
ACACTCTG	0.272 ± 0.019
CCGCCACC	0.288 ± 0.056
ACTCTGCG	0.104 ± 0.012
ATAGCGCG	0.207 ± 0.017
GCTTCTCC	-0.194 ± 0.039
CTGGTACC	-0.0548 ± 0.03

Sequence	PBM E-score of 8-mer
TTCGCCAA	0.124 ± 0.054
ACAGTGAC	0.163 ± 0.018
CATCGGCG	0.00151 ± 0.036
CGTCAATA	0.11 ± 0.017
ATGCGGAC	-0.206 ± 0.083
ATTTGGCG	0.118 ± 0.03
AGACTCGA	-0.158 ± 0.006
GGTACCAC	0.0611 ± 0.029
GCATAAGA	-0.189 ± 0.0068
CTCTGGAC	-0.124 ± 0.011
CTCGGCTA	0.0218 ± 0.005
ATAGTACC	-0.0765 ± 0.017
ATTGCCAG	0.0978 ± 0.026
AATACCAC	0.165 ± 0.025
ACTGTCCT	-0.12 ± 0.023
AATTTCGG	-0.0357 ± 0.1
AAATTTTG	-0.251 ± 0.094
AGCACTGC	0.087 ± 0.033
AAGTCAGC	-0.196 ± 0.032
CAGCGCAG	-0.14 ± 0.069
CACGCTGA	0.0482 ± 0.031
CAAGACCC	-0.0846 ± 0.045
